# Data reported in the supplement of paper PMC8728848.
# Some of the results follow.
# Tests used:
# Test in all cases: glycan array binding signal (z-score within array); higher = stronger binding
# Conditions in all cases: glycan notation: IUPAC condensed, linker removed
# [1] = target: GlcNAc(a1-4)Gal(b1-3)GlcNAc
# Summary of the method: (§1)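 The binding signal is a Z-score computed within each array. Data were drawn from 3228 arrays in the Consortium for Functional Glycomics database, restricted to those with a known protein sequence. Scores were averaged over arrays of the same protein sequence at different concentrations or buffers, and over linkers, and negative values can be taken as non-binding.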
# [2] = target: GlcNAc(a1-4)Gal(b1-4)GalNAc
# Summary of the method: as §1
# [3] = target: GlcNAc(a1-4)Gal(b1-4)GlcNAc
# Summary of the method: as §1
# [4] = target: GlcNAc(a1-4)Gal(b1-4)GlcNAc(b1-3)Gal(b1-4)Glc
# Summary of the method: as §1
# [5] = target: GlcNAc(a1-4)Gal(b1-4)GlcNAc(b1-3)Gal(b1-4)GlcNAc
# Summary of the method: as §1
# [6] = target: GlcNAc(a1-4)Gal(b1-4)GlcNAc(b1-3)Gal(b1-4)GlcNAc(b1-3)Gal(b1-4)GlcNAc
# Summary of the method: as §1
# [7] = target: GlcNAc(a1-4)Gal(b1-4)GlcNAc(b1-3)Gal(b1-4)[Fuc(a1-3)]GlcNAc(b1-3)Gal(b1-4)[Fuc(a1-3)]GlcNAc
# Summary of the method: as §1
# [8] = target: GlcNAc(a1-6)Gal(b1-4)GlcNAc
# Summary of the method: as §1
# [9] = target: GlcNAc(b1-2)Gal(b1-3)GalNAc
# Summary of the method: as §1
# [10] = target: GlcNAc(b1-2)Man(a1-3)[GlcNAc(b1-2)Man(a1-6)]Man(b1-4)GlcNAc(b1-4)GlcNAc
# Summary of the method: as §1
# [11] = target: GlcNAc(b1-2)Man(a1-3)[GlcNAc(b1-2)Man(a1-6)]Man(b1-4)GlcNAc(b1-4)[Fuc(a1-6)]GlcNAc
# Summary of the method: as §1
# [12] = target: GlcNAc(b1-2)Man(a1-3)[GlcNAc(b1-4)][GlcNAc(b1-2)Man(a1-6)]Man(b1-4)GlcNAc(b1-4)GlcNAc
# Summary of the method: as §1
# [13] = target: GlcNAc(b1-2)Man(a1-3)[GlcNAc(b1-4)][GlcNAc(b1-2)Man(a1-6)]Man(b1-4)GlcNAc(b1-4)[Fuc(a1-6)]GlcNAc
# Summary of the method: as §1
# [14] = target: GlcNAc(b1-2)[GlcNAc(b1-4)]Man(a1-3)[GlcNAc(b1-2)Man(a1-6)]Man(b1-4)GlcNAc(b1-4)GlcNAc
# Summary of the method: as §1
# [15] = target: GlcNAc(b1-2)[GlcNAc(b1-4)]Man(a1-3)[GlcNAc(b1-4)][GlcNAc(b1-2)Man(a1-6)]Man(b1-4)GlcNAc(b1-4)GlcNAc
# Summary of the method: as §1
# [16] = target: GlcNAc(b1-2)[GlcNAc(b1-4)]Man(a1-3)[GlcNAc(b1-4)][GlcNAc(b1-2)[GlcNAc(b1-6)]Man(a1-6)]Man(b1-4)GlcNAc(b1-4)GlcNAc
# Summary of the method: as §1
# [17] = target: GlcNAc(b1-2)[GlcNAc(b1-4)]Man(a1-3)[GlcNAc(b1-4)][GlcNAc(b1-2)[GlcNAc(b1-6)]Man(a1-6)]Man(b1-4)GlcNAc(b1-4)[Fuc(a1-6)]GlcNAc
# Summary of the method: as §1
# [18] = target: GlcNAc(b1-2)[GlcNAc(b1-6)]Man(a1-6)[GlcNAc(b1-2)Man(a1-3)]Man(b1-4)GlcNAc(b1-4)GlcNAc
# Summary of the method: as §1
# [19] = target: GlcNAc(b1-2)[GlcNAc(b1-6)]Man(a1-6)[GlcNAc(b1-2)Man(a1-3)]Man(b1-4)GlcNAc(b1-4)[Fuc(a1-6)]GlcNAc
# Summary of the method: as §1
# [20] = target: GlcNAc(b1-2)[GlcNAc(b1-6)]Man(a1-6)[GlcNAc(b1-4)][GlcNAc(b1-2)Man(a1-3)]Man(b1-4)GlcNAc(b1-4)GlcNAc
# Summary of the method: as §1
# GlcNAc(b1-3)Fuc = target: GlcNAc(b1-3)Fuc
# Summary of the method: as §1
# GlcNAc(b1-3)Gal = target: GlcNAc(b1-3)Gal
# Summary of the method: as §1
# [21] = target: GlcNAc(b1-3)Gal(b1-3)GalNAc
# Summary of the method: as §1
# GlcNAc(b1-3)Gal(b1-4)Glc = target: GlcNAc(b1-3)Gal(b1-4)Glc
# Summary of the method: as §1
# [22] = target: GlcNAc(b1-3)Gal(b1-4)GlcNAc
# Summary of the method: as §1
# [23] = target: GlcNAc(b1-3)Gal(b1-4)GlcNAc(b1-2)Man(a1-3)[GlcNAc(b1-3)Gal(b1-4)GlcNAc(b1-2)Man(a1-6)]Man(b1-4)GlcNAc(b1-4)GlcNAc
# Summary of the method: as §1
# [24] = target: GlcNAc(b1-3)Gal(b1-4)GlcNAc(b1-2)Man(a1-3)[GlcNAc(b1-3)Gal(b1-4)GlcNAc(b1-2)Man(a1-6)]Man(b1-4)GlcNAc(b1-4)[Fuc(a1-6)]GlcNAc
# Summary of the method: as §1
# [25] = target: GlcNAc(b1-3)Gal(b1-4)GlcNAc(b1-2)[GlcNAc(b1-3)Gal(b1-4)GlcNAc(b1-6)]Man(a1-6)[GlcNAc(b1-3)Gal(b1-4)GlcNAc(b1-2)Man(a1-3)]Man(b1-4)GlcNAc(b1-4)GlcNAc
# Summary of the method: as §1
# [26] = target: GlcNAc(b1-3)Gal(b1-4)GlcNAc(b1-3)Gal(b1-4)GlcNAc
# Summary of the method: as §1
# [27] = target: GlcNAc(b1-3)Gal(b1-4)GlcNAc(b1-3)Gal(b1-4)GlcNAc(b1-2)Man(a1-3)[GlcNAc(b1-3)Gal(b1-4)GlcNAc(b1-3)Gal(b1-4)GlcNAc(b1-2)Man(a1-6)]Man(b1-4)GlcNAc(b1-4)GlcNAc
# Summary of the method: as §1
# [28] = target: GlcNAc(b1-3)Gal(b1-4)GlcNAc(b1-3)Gal(b1-4)GlcNAc(b1-2)Man(a1-3)[GlcNAc(b1-3)Gal(b1-4)GlcNAc(b1-3)Gal(b1-4)GlcNAc(b1-2)Man(a1-6)]Man(b1-4)GlcNAc(b1-4)[Fuc(a1-6)]GlcNAc
# Summary of the method: as §1
# [29] = target: GlcNAc(b1-3)Gal(b1-4)GlcNAc(b1-3)Gal(b1-4)GlcNAc(b1-2)[GlcNAc(b1-3)Gal(b1-4)GlcNAc(b1-3)Gal(b1-4)GlcNAc(b1-6)]Man(a1-6)[GlcNAc(b1-3)Gal(b1-4)GlcNAc(b1-3)Gal(b1-4)GlcNAc(b1-2)Man(a1-3)]Man(b1-4)GlcNAc(b1-4)[Fuc(a1-6)]GlcNAc
# Summary of the method: as §1
# [30] = target: GlcNAc(b1-3)Gal(b1-4)GlcNAc(b1-3)Gal(b1-4)GlcNAc(b1-3)Gal(b1-4)GlcNAc(b1-2)Man(a1-3)[GlcNAc(b1-3)Gal(b1-4)GlcNAc(b1-3)Gal(b1-4)GlcNAc(b1-3)Gal(b1-4)GlcNAc(b1-2)Man(a1-6)]Man(b1-4)GlcNAc(b1-4)GlcNAc
# Summary of the method: as §1
# [31] = target: GlcNAc(b1-3)Gal(b1-4)GlcNAc(b1-3)Gal(b1-4)GlcNAc(b1-3)Gal(b1-4)GlcNAc(b1-2)Man(a1-3)[GlcNAc(b1-3)Gal(b1-4)GlcNAc(b1-3)Gal(b1-4)GlcNAc(b1-3)Gal(b1-4)GlcNAc(b1-2)Man(a1-6)]Man(b1-4)GlcNAc(b1-4)[Fuc(a1-6)]GlcNAc
# Summary of the method: as §1
# [32] = target: GlcNAc(b1-3)Gal(b1-4)GlcNAc(b1-3)Gal(b1-4)GlcNAc(b1-3)Gal(b1-4)GlcNAc(b1-2)[GlcNAc(b1-3)Gal(b1-4)GlcNAc(b1-3)Gal(b1-4)GlcNAc(b1-3)Gal(b1-4)GlcNAc(b1-6)]Man(a1-6)[GlcNAc(b1-3)Gal(b1-4)GlcNAc(b1-3)Gal(b1-4)GlcNAc(b1-3)Gal(b1-4)GlcNAc(b1-2)Man(a1-3)]Man(b1-4)GlcNAc(b1-4)[Fuc(a1-6)]GlcNAc
# Summary of the method: as §1
# [33] = target: GlcNAc(b1-3)Gal(b1-4)GlcNAc(b1-3)Gal(b1-4)GlcNAc(b1-3)Gal(b1-4)GlcNAc(b1-3)Gal(b1-4)GlcNAc(b1-2)Man(a1-3)[GlcNAc(b1-3)Gal(b1-4)GlcNAc(b1-3)Gal(b1-4)GlcNAc(b1-3)Gal(b1-4)GlcNAc(b1-3)Gal(b1-4)GlcNAc(b1-2)Man(a1-6)]Man(b1-4)GlcNAc(b1-4)GlcNAc
# Summary of the method: as §1
# [34] = target: GlcNAc(b1-3)Gal(b1-4)GlcNAc(b1-3)Gal(b1-4)GlcNAc(b1-3)Gal(b1-4)GlcNAc(b1-3)Gal(b1-4)GlcNAc(b1-2)Man(a1-3)[GlcNAc(b1-3)Gal(b1-4)GlcNAc(b1-3)Gal(b1-4)GlcNAc(b1-3)Gal(b1-4)GlcNAc(b1-3)Gal(b1-4)GlcNAc(b1-2)Man(a1-6)]Man(b1-4)GlcNAc(b1-4)[Fuc(a1-6)]GlcNAc
# Summary of the method: as §1
# [35] = target: GlcNAc(b1-3)Gal(b1-4)GlcNAc(b1-3)Gal(b1-4)GlcNAc(b1-3)Gal(b1-4)GlcNAc(b1-3)Gal(b1-4)GlcNAc(b1-2)[GlcNAc(b1-3)Gal(b1-4)GlcNAc(b1-3)Gal(b1-4)GlcNAc(b1-3)Gal(b1-4)GlcNAc(b1-3)Gal(b1-4)GlcNAc(b1-6)]Man(a1-6)[GlcNAc(b1-3)Gal(b1-4)GlcNAc(b1-3)Gal(b1-4)GlcNAc(b1-3)Gal(b1-4)GlcNAc(b1-3)Gal(b1-4)GlcNAc(b1-2)Man(a1-3)]Man(b1-4)GlcNAc(b1-4)[Fuc(a1-6)]GlcNAc
# Summary of the method: as §1
binder,measurement,setting,value
diCBM40 CPF071 (Clostridium perfringens) (protein) MAHHHHHHVGTGSNDDDDKSPDPMLSSLGEYKDINLESSNASNITYDLEKYKNLDEGTIVVRFNSKDSKIQSLLGISNSKTKNGYFNFYVTNSRVGFELRNQKNEGNTQNGTENLVHMYKDVALNDGDNTVALKIEKNKGYKLFLNGKMIKEVKDTNTKFLNNIENLDSAFIGKTNRYGQSNEYNFKGNIGFMNIYNEPLGDDYLLSKTGETKALNGSELGSGSGLSSLGEYKDINLESSNASNITYDLEKYKNLDEGTIVVRFNSKDSKIQSLLGISNSKTKNGYFNFYVTNSRVGFELRNQKNEGNTQNGTENLVHMYKDVALNDGDNTVALKIEKNKGYKLFLNGKMIKEVKDTNTKFLNNIENLDSAFIGKTNRYGQSNEYNFKGNIGFMNIYNEPLGDDYLLSKTGETK,glycan array binding signal (z-score),[1],-0.308
same,glycan array binding signal (z-score),[2],0.14
same,glycan array binding signal (z-score),[3],-0.233
same,glycan array binding signal (z-score),[4],-0.283
same,glycan array binding signal (z-score),[5],-0.335
same,glycan array binding signal (z-score),[6],-0.311
same,glycan array binding signal (z-score),[7],-0.032
same,glycan array binding signal (z-score),[8],-0.35
same,glycan array binding signal (z-score),[9],-0.324
same,glycan array binding signal (z-score),[10],-0.319
same,glycan array binding signal (z-score),[11],-0.293
same,glycan array binding signal (z-score),[12],-0.326
same,glycan array binding signal (z-score),[13],-0.342
same,glycan array binding signal (z-score),[14],-0.274
same,glycan array binding signal (z-score),[15],-0.262
same,glycan array binding signal (z-score),[16],-0.298
same,glycan array binding signal (z-score),[17],-0.326
same,glycan array binding signal (z-score),[18],-0.337
same,glycan array binding signal (z-score),[19],-0.346
same,glycan array binding signal (z-score),[20],-0.343
same,glycan array binding signal (z-score),GlcNAc(b1-3)Fuc,-0.295
same,glycan array binding signal (z-score),GlcNAc(b1-3)Gal,-0.239
same,glycan array binding signal (z-score),[21],-0.056
same,glycan array binding signal (z-score),GlcNAc(b1-3)Gal(b1-4)Glc,-0.116
same,glycan array binding signal (z-score),[22],-0.281
same,glycan array binding signal (z-score),[23],-0.242
same,glycan array binding signal (z-score),[24],-0.284
same,glycan array binding signal (z-score),[25],0.062
same,glycan array binding signal (z-score),[26],-0.337
same,glycan array binding signal (z-score),[27],-0.325
same,glycan array binding signal (z-score),[28],-0.186
same,glycan array binding signal (z-score),[29],-0.055
same,glycan array binding signal (z-score),[30],0.045
same,glycan array binding signal (z-score),[31],-0.187
same,glycan array binding signal (z-score),[32],0.036
same,glycan array binding signal (z-score),[33],-0.157
same,glycan array binding signal (z-score),[34],-0.206
same,glycan array binding signal (z-score),[35],-0.23
